# Experimental data from publication PMC6602471.
# This is one part of the list. At the low end of the ranking, values are background and their order means little.
# Target: T1, ETS1 (UniProt P14921)
# T1 sequence: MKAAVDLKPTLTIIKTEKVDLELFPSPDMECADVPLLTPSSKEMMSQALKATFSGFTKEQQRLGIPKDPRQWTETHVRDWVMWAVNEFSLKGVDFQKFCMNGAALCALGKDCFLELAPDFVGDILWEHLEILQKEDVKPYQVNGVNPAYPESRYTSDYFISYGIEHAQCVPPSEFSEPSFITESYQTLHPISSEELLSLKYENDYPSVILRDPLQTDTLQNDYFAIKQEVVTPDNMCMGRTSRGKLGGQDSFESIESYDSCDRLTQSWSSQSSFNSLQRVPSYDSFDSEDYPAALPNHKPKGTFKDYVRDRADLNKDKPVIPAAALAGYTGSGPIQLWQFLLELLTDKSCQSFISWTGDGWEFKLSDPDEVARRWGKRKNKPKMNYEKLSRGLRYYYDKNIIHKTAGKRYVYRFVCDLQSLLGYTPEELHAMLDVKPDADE
# Test: custom PBM
# Details: custom protein-binding microarray; buffer, salt, pH and temperature not stated; high values mean tight binding; double strand, one strand shown
row,Sequence,binding signal (log fluorescence intensity)
1,TCCGGCTACCAGCTCCACCCACCTCAGGCCTTGTAGGTCTTGATTCGCTTGACGCTGCTG,8.07
2,GCTTAATTTCTGCCCTTATTCGCACGTGCCATAACAGTCTTGATTCGCTTGACGCTGCTG,8.29
3,GCTGCTGCGGTGCATACCCCACCGGATGTGACCGCGGTCTTGATTCGCTTGACGCTGCTG,10.5
4,GATTAATTTCTGCCCTTATTCGCACGTGACATAACAGTCTTGATTCGCTTGACGCTGCTG,8.18
5,TCCGGCTACCAGCTCCACCCACTTCAGGCCTTGTAGGTCTTGATTCGCTTGACGCTGCTG,8.36
6,TAAAGGGAAGACGGTTGTGGTAGTTCCGGGTATCAAGTCTTGATTCGCTTGACGCTGCTG,8.76
7,TAAAGGGAAGACGGTTGTGGTAGTTCCGGATATTAAGTCTTGATTCGCTTGACGCTGCTG,8.8
8,TGTCGGGTAAGGGAATGTTGATCACGTGAATGAAAAGTCTTGATTCGCTTGACGCTGCTG,8.32
9,CTGGGACTTCACCCAACTCTGCCACGTGGGTCGTTTGTCTTGATTCGCTTGACGCTGCTG,8.06
10,CGGAAGTGTCGTAAACGTCGGATATCCGGTACTTCTGTCTTGATTCGCTTGACGCTGCTG,11.8
11,CACAATTTTTACAGTAATGTAGCACGCGTAACGCCTGTCTTGATTCGCTTGACGCTGCTG,8.14
12,CACAATTTTTACAGTAATGTAGCACGCGTAACTCATGTCTTGATTCGCTTGACGCTGCTG,8.24
13,GGAAAAAGGCCCAGGGTAATACCGGAAGTGGGCTTAGTCTTGATTCGCTTGACGCTGCTG,12
14,TACTGACTTATACATGCGAATGCACATGAATAGACCGTCTTGATTCGCTTGACGCTGCTG,8.23
15,CGGAAGTTTCGTAAACGTCGGATATCCGGTTCTTCTGTCTTGATTCGCTTGACGCTGCTG,11.6
16,CACAGTTTTTACAGTAATGTAGCACGCGTAACTCCTGTCTTGATTCGCTTGACGCTGCTG,8.32
17,GCTGCTGCGGTGCATACCCCACCGAATGTGACCCCGGTCTTGATTCGCTTGACGCTGCTG,8.2
18,GGTTAATTTCTGCCCTTATTCGCACGTGCCATAACAGTCTTGATTCGCTTGACGCTGCTG,8.12
19,TACTGTCTTATATATGCGAATGCACATGAATAGACCGTCTTGATTCGCTTGACGCTGCTG,8.29
20,GATTAATTTCTGCCCCTATTCGCACGTGCCATAACAGTCTTGATTCGCTTGACGCTGCTG,8.37
21,CGGAAGTGTCGTAAACGTCGGATATCCTGTTCTTCTGTCTTGATTCGCTTGACGCTGCTG,10.1

row,Sequence,binding signal (log fluorescence intensity)
1,CACAATTTTTACAGTAATGGAGCACGCGTAACTCCTGTCTTGATTCGCTTGACGCTGCTG,8.32
2,TGTCGGGCAAGGGAATGTAGATCACGTGAATGAAAAGTCTTGATTCGCTTGACGCTGCTG,8.27
3,GGAAAAATGCCCAGGGTAACACCGGAAGTGGGCTTAGTCTTGATTCGCTTGACGCTGCTG,12.1
4,CGGAAGTGTCGTAAACGTCGGATATCCGGTTCGTCTGTCTTGATTCGCTTGACGCTGCTG,11.9
5,CAGCATAGGACTTCTTCCCTGAAGCAATTGATAAACGTCTTGATTCGCTTGACGCTGCTG,8.31
6,GATTAATTTCTGCCCTTATGCGCACGTGCCATAACAGTCTTGATTCGCTTGACGCTGCTG,8.04
7,CTAGGACTTGACCCAACTCTGCCACGTGGGTCGTTTGTCTTGATTCGCTTGACGCTGCTG,8.03
8,GGAAAAAGGCCCAGGGTAACACCGGAAGTGAGCTTAGTCTTGATTCGCTTGACGCTGCTG,11.9
9,GATTAATTTCTGCCCTTATTCGCACGCGCCATAACAGTCTTGATTCGCTTGACGCTGCTG,8.16
10,CTGGGACTTGACCCAACTCTGCCACGTCGGTCGTTTGTCTTGATTCGCTTGACGCTGCTG,8.15
11,TAAAGGAAAGACGGTTGTGGTAGTTCCGGGTATTAAGTCTTGATTCGCTTGACGCTGCTG,8.77
12,GGAAAAAGGCCCAGGGTAACACCGGATGTGGGCTTAGTCTTGATTCGCTTGACGCTGCTG,11
13,CAGCATAGGACTTCTTCCCTGAAGCAATTGACAACCGTCTTGATTCGCTTGACGCTGCTG,7.96
14,TACTGACTTATATATGCAAATGCACATGAATAGACCGTCTTGATTCGCTTGACGCTGCTG,8.22
15,CACAATTTTTACATTAATGTAGCACGCGTAACTCCTGTCTTGATTCGCTTGACGCTGCTG,8.25
16,GTGGATAGGATCCCATCCAACACACGTGTTAAAATGGTCTTGATTCGCTTGACGCTGCTG,8.28
17,CTCAATTTTTACAGTAATGTAGCACGCGTAACTCCTGTCTTGATTCGCTTGACGCTGCTG,8.39
18,TGTCGGGTAAGGGAATGTAGATCACGTGTATGAAAAGTCTTGATTCGCTTGACGCTGCTG,8.19
19,TCCGGCTACCAGCTCCACCCACTTCAGGCCCTGTAGGTCTTGATTCGCTTGACGCTGCTG,8.19
20,GATTAATTTCTGCCCTTTTTCGCACGTGCCATAACAGTCTTGATTCGCTTGACGCTGCTG,8.42
